Some of the results follow. Most values come without repeats; read them as rough.
system: WM3619; assay: cell count relative to DMSO control; melanoma cells; higher = more viable cells; settings: library dose: standard library concentration; 72 h; first compound 2 µM
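Note: cells treated in 1,536-well plates, then fixed and DAPI-stained, with nuclei counted from automated high-throughput microscope images.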

Row | SMILES | cell count [%]
1 | CCCCCCCCCCCCCCCCCCOP(=O)([O-])OC1CC[N+](C)(C)CC1 [Perifosine] + Cc1ccc(NC(=O)c2cccc(N(C)C)c2)cc1NC(=O)c1ccc(O)cc1 [ZM336372] (partner dose 10 µM) | 100
2 | CCCCCCCCCCCCCCCCCCOP(=O)([O-])OC1CC[N+](C)(C)CC1 [Perifosine] + O=C(Nc1cccc(Cl)c1)Nc1ncc(CCNc2ncnc3ccsc23)s1 [SNS314] (partner dose 0.004 µM) | 66.8
3 | CCCCCCCCCCCCCCCCCCOP(=O)([O-])OC1CC[N+](C)(C)CC1 [Perifosine] + CC1(C)NC(=O)N(c2ccc([N+](=O)[O-])c(C(F)(F)F)c2)C1=O [nilutamide] (partner dose 5 µM) | 54.4
4 | Cn1sc(=O)n(Cc2ccccc2)c1=O + Cn1cncc1[C@@](N)(c1ccc(Cl)cc1)c1ccc2c(c1)c(-c1cccc(Cl)c1)cc(=O)n2C [tipifarnib] (partner dose 0.05 µM) | 73.8
5 | C[C@@H](N)c1ccc(C(=O)Nc2ccnc3[nH]ccc23)cc1 + CO[C@@H]1[C@H](N(C)C(=O)c2ccccc2)C[C@H]2O[C@]1(C)n1c3ccccc3c3c4c(c5c6ccccc6n2c5c31)C(=O)NC4 [Midostaurin] (partner dose 0.4 µM) | 65.9
6 | C[C@@H](N)c1ccc(C(=O)Nc2ccnc3[nH]ccc23)cc1 + O=C(O)c1ccc(-c2c[nH]c3ncc(-c4ccccc4)cc23)cc1C1CCCC1 [GSK650394] (partner dose 0.8 µM) | 94.1
7 | C[C@@H](N)c1ccc(C(=O)Nc2ccnc3[nH]ccc23)cc1 + CN(C)S(=O)(=O)c1ccc2c(c1)/C(=C/c1cc3c([nH]1)CCCC3)C(=O)N2 [SU6656] (partner dose 2 µM) | 48.8

system: WM451Lu; assay: as above; settings: library dose: standard library concentration; 72 h; first compound 2 µM

Row | SMILES | cell count [%]
8 | CCCCCCCCCCCCCCCCCCOP(=O)([O-])OC1CC[N+](C)(C)CC1 [Perifosine] + CO[C@@H]1[C@H](N(C)C(=O)c2ccccc2)C[C@H]2O[C@]1(C)n1c3ccccc3c3c4c(c5c6ccccc6n2c5c31)C(=O)NC4 [Midostaurin] (partner dose 0.4 µM) | 64.5
9 | C[C@@H](N)c1ccc(C(=O)Nc2ccnc3[nH]ccc23)cc1 + Cc1ccc(NC(=O)c2cccc(N(C)C)c2)cc1NC(=O)c1ccc(O)cc1 [ZM336372] (partner dose 10 µM) | 91.5
10 | CCCCCCCCCCCCCCCCCCOP(=O)([O-])OC1CC[N+](C)(C)CC1 [Perifosine] + OCCn1cc(-c2cnc3nnn(Cc4ccc5ncccc5c4)c3n2)cn1 [PF04217903] (partner dose 5 µM) | 78.1
11 | Cn1sc(=O)n(Cc2ccccc2)c1=O + O=C(Nc1cccc(Cl)c1)Nc1ncc(CCNc2ncnc3ccsc23)s1 [SNS314] (partner dose 0.004 µM) | 53.6
12 | CCCCCCCCCCCCCCCCCCOP(=O)([O-])OC1CC[N+](C)(C)CC1 [Perifosine] + C[C@@H]1CCN(C(=O)CC#N)C[C@@H]1N(C)c1ncnc2[nH]ccc12 [CP690550] (partner dose 5 µM) | 110
13 | Cn1sc(=O)n(Cc2ccccc2)c1=O + O=C(CCCCCCC(=O)Nc1ccccc1)NO [vorinostat] (partner dose 0.4 µM) | 78.6
14 | CCCCCCCCCCCCCCCCCCOP(=O)([O-])OC1CC[N+](C)(C)CC1 [Perifosine] + O=C(O)c1ccc(-c2c[nH]c3ncc(-c4ccccc4)cc23)cc1C1CCCC1 [GSK650394] (partner dose 0.8 µM) | 81.8
15 | CCCCCCCCCCCCCCCCCCOP(=O)([O-])OC1CC[N+](C)(C)CC1 [Perifosine] + Cc1cc(N2CCOCC2)cc2[nH]c(-c3c(NC[C@@H](O)c4cccc(Cl)c4)cc[nH]c3=O)nc12 [BMS536924] (partner dose 1 µM) | 95.9
16 | C[C@@H](N)c1ccc(C(=O)Nc2ccnc3[nH]ccc23)cc1 + CC(C)(C)c1cnc(CSc2cnc(NC(=O)C3CCNCC3)s2)o1 [SNS-032] (partner dose 0.05 µM) | 47.5
17 | C[C@@H](N)c1ccc(C(=O)Nc2ccnc3[nH]ccc23)cc1 + Cn1cncc1[C@@](N)(c1ccc(Cl)cc1)c1ccc2c(c1)c(-c1cccc(Cl)c1)cc(=O)n2C [tipifarnib] (partner dose 0.05 µM) | 62.5
18 | CCCCCCCCCCCCCCCCCCOP(=O)([O-])OC1CC[N+](C)(C)CC1 [Perifosine] + CN(NC(=O)CC(=O)NN(C)C(=S)c1ccccc1)C(=S)c1ccccc1 [STA4783] (partner dose 0.03 µM) | 116
19 | Cn1sc(=O)n(Cc2ccccc2)c1=O + CN(C)S(=O)(=O)c1ccc2c(c1)/C(=C/c1cc3c([nH]1)CCCC3)C(=O)N2 [SU6656] (partner dose 2 µM) | 77.1
20 | CCCCCCCCCCCCCCCCCCOP(=O)([O-])OC1CC[N+](C)(C)CC1 [Perifosine] + O=C(CCCCCCC(=O)Nc1ccccc1)NO [vorinostat] (partner dose 0.4 µM) | 87
21 | C[C@@H](N)c1ccc(C(=O)Nc2ccnc3[nH]ccc23)cc1 + C=CCn1c(=O)c2cnc(Nc3ccc(N4CCN(C)CC4)cc3)nc2n1-c1cccc(C(C)(C)O)n1 [MK1775] (partner dose 0.1 µM) | 86.6
22 | C[C@@H](N)c1ccc(C(=O)Nc2ccnc3[nH]ccc23)cc1 + O=C(CCCCCCC(=O)Nc1ccccc1)NO [vorinostat] (partner dose 0.4 µM) | 77.8
23 | Cn1sc(=O)n(Cc2ccccc2)c1=O + CC(C)(C)c1cnc(CSc2cnc(NC(=O)C3CCNCC3)s2)o1 [SNS-032] (partner dose 0.05 µM) | 79.7

Row | SMILES | cell count [%]
24 | C[C@@H](N)c1ccc(C(=O)Nc2ccnc3[nH]ccc23)cc1 + COc1cc(Nc2ncc(F)c(Nc3ccc4c(n3)NC(=O)C(C)(C)O4)n2)cc(OC)c1OC [Tamatinib] (partner dose 2 µM) | 59.9
25 | Cn1sc(=O)n(Cc2ccccc2)c1=O + COc1cc2c(Oc3ccc4[nH]c(C)cc4c3F)ncnc2cc1OCCCN1CCCC1 [cediranib] (partner dose 2 µM) | 88.4
26 | Cn1sc(=O)n(Cc2ccccc2)c1=O + C=CCn1c(=O)c2cnc(Nc3ccc(N4CCN(C)CC4)cc3)nc2n1-c1cccc(C(C)(C)O)n1 [MK1775] (partner dose 0.1 µM) | 111
27 | Cn1sc(=O)n(Cc2ccccc2)c1=O + NC(=O)Nc1cc(-c2cccc(F)c2)sc1C(=O)N[C@H]1CCCNC1 [AZD7762] (partner dose 0.1 µM) | 89.4
28 | Cn1sc(=O)n(Cc2ccccc2)c1=O + CO[C@@H]1[C@H](N(C)C(=O)c2ccccc2)C[C@H]2O[C@]1(C)n1c3ccccc3c3c4c(c5c6ccccc6n2c5c31)C(=O)NC4 [Midostaurin] (partner dose 0.4 µM) | 74.1
29 | Cn1sc(=O)n(Cc2ccccc2)c1=O + CC1(C)NC(=O)N(c2ccc([N+](=O)[O-])c(C(F)(F)F)c2)C1=O [nilutamide] (partner dose 5 µM) | 96.5
30 | C[C@@H](N)c1ccc(C(=O)Nc2ccnc3[nH]ccc23)cc1 + OCCn1cc(-c2cnc3nnn(Cc4ccc5ncccc5c4)c3n2)cn1 [PF04217903] (partner dose 5 µM) | 82
31 | C[C@@H](N)c1ccc(C(=O)Nc2ccnc3[nH]ccc23)cc1 + NCC(=O)Nc1ccc(-n2nc(C(F)(F)F)cc2-c2ccc3c(ccc4ccccc43)c2)cc1 [OSU03012] (partner dose 5 µM) | 80.5
32 | CCCCCCCCCCCCCCCCCCOP(=O)([O-])OC1CC[N+](C)(C)CC1 [Perifosine] + C=CCn1c(=O)c2cnc(Nc3ccc(N4CCN(C)CC4)cc3)nc2n1-c1cccc(C(C)(C)O)n1 [MK1775] (partner dose 0.1 µM) | 106
33 | C[C@@H](N)c1ccc(C(=O)Nc2ccnc3[nH]ccc23)cc1 + CN(NC(=O)CC(=O)NN(C)C(=S)c1ccccc1)C(=S)c1ccccc1 [STA4783] (partner dose 0.03 µM) | 79.1
34 | Cn1sc(=O)n(Cc2ccccc2)c1=O + C[C@@H]1CCN(C(=O)CC#N)C[C@@H]1N(C)c1ncnc2[nH]ccc12 [CP690550] (partner dose 5 µM) | 136
35 | Cn1sc(=O)n(Cc2ccccc2)c1=O + Cc1cc(N2CCOCC2)cc2[nH]c(-c3c(NC[C@@H](O)c4cccc(Cl)c4)cc[nH]c3=O)nc12 [BMS536924] (partner dose 1 µM) | 87.8
36 | CCCCCCCCCCCCCCCCCCOP(=O)([O-])OC1CC[N+](C)(C)CC1 [Perifosine] + NC(=O)Nc1cc(-c2cccc(F)c2)sc1C(=O)N[C@H]1CCCNC1 [AZD7762] (partner dose 0.1 µM) | 106
37 | CCCCCCCCCCCCCCCCCCOP(=O)([O-])OC1CC[N+](C)(C)CC1 [Perifosine] + Cn1cncc1[C@@](N)(c1ccc(Cl)cc1)c1ccc2c(c1)c(-c1cccc(Cl)c1)cc(=O)n2C [tipifarnib] (partner dose 0.05 µM) | 72.5
38 | CCCCCCCCCCCCCCCCCCOP(=O)([O-])OC1CC[N+](C)(C)CC1 [Perifosine] + CC(C)(C)c1cnc(CSc2cnc(NC(=O)C3CCNCC3)s2)o1 [SNS-032] (partner dose 0.05 µM) | 68.4
39 | C[C@@H](N)c1ccc(C(=O)Nc2ccnc3[nH]ccc23)cc1 + COc1cc2c(Oc3ccc4[nH]c(C)cc4c3F)ncnc2cc1OCCCN1CCCC1 [cediranib] (partner dose 2 µM) | 71.6

From the supplement of paper PMC4604168 (melanoma cell lines)
